In the supplement of paper PMC11417369:
Some of the results follow.

Tested on: PF3D7_0420300 AP2 domain 1 (GST-tagged)
Experiment: gcPBM binding intensity (ln(normalized median fluorescence intensity)); higher = stronger DNA binding
Method in brief: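 Alexa488 anti-GST antibody, scanned at 488 nm, detected GST-tagged P. falciparum DNA-binding domains that had been expressed in E. coli and incubated for 1 h on an Agilent 4 × 180k array. The array carried primer-extended double-stranded 36-bp intergenic genomic probes and negative controls. Binding intensity is the highest Masliner-normalised natural-log median intensity across replicate spots of either orientation of each probe.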

Row | Sequence | gcPBM binding intensity (ln)
1 | ATGGCATAAATATATGCACACACAAAAAAAAAAAAA [CACACA_site7902] | 9.43
2 | TATATATATATAATATGTACATATATACATGCCTTG [XGTACX_site2791] | 9.15
3 | TACACTAATGACAGTTGTACTTTTATTCGATAGAAT [XGTACX_site738] | 9.05
4 | TCGAAAATGACGAATGGTACAGTATGTATAAAAATA [XGTACX_site1258] | 9.27
5 | ACTTTTTTTTTGTGTGTGCACTCGATTATATACATA [GTGCAC_site9846] | 10
6 | TATATATACATACGTACACACAAATATTAAAATATA [CACACA_site1951] | 9.5
7 | TCAAAATTGCTTTGTTGTACTAATAAAATTTATTAC [XGTACX_site1121] | 9.13
8 | TATCTGTAAACATATTCACACACATAAATTCGCATA [CACACA_site8557] | 9.75
9 | GATAAATATTTAATATGTACATATATTATATATATA [XGTACX_site117] | 9.08
10 | GTTATATATGATGGAAGCACTTGGAAGAGGGAAATA [CACACA_negctrl_site1831] | 9.44
11 | AAAAATAAAAAAATAAAAAATAAAAAAATAAAAAAT [CACACA_negctrl_site1425] | 9.57
12 | TATATACACACCGTGTGTACATATACATTAACTGAA [XGTACX_site7120] | 9.83
13 | ATATATTATATATGCGCACACACGAATTTTTTTTTT [CACACA_site2393] | 9.64
14 | ATTAAAGTTATAAATTCACACATGTAAATGTATTTA [CACACA_site5279] | 9.12
15 | TTTTATTTATCATACACACACAGAAAAAAAAAAAAA [CACACA_site158] | 9.57
16 | GAATGTTTATTATATGCATGTTATATATATGAATAT [TGCATGCA_site4] | 9.28
17 | CCTTTCCTTTTATAAGTGCATATAACAAATGTATAC [GTGCAC_site9872] | 9.18
18 | AATAATGAAAAATCAAATAACCTAAATTACAACTGT [XGTACX_negctrl_site65] | 9.57
19 | AAATACTGTACAAAGGTGCATAAAAAGTGGGGCATA | 9.74
20 | TCAAAAGAAATAAAAACATGCATAAAAGTAAAAATA [TGCATGCA_site832] | 9.33
21 | ACGTATATTTTTACATGTACATATGTAAAAAATTTT [XGTACX_site4587] | 9.08
22 | TGTTTTTCATAGTGCACACATAACCAAAAATAGTAT [CACACA_site3150] | 9.41

Row | Sequence | gcPBM binding intensity (ln)
23 | AAATAATATATATACACACACACATATATATATACA [CACACA_site554] | 10.1
24 | TTATGATAATTTTGCACACACTTAGGAAAAATTATG [CACACA_site4949] | 9.4
25 | CTTATATATACGTGCACACATATATATAAGATATAT [CACACA_site1752] | 9.31
26 | AAAAATATAAATGACACACACTTAAAAACAAAGAAA [CACACA_site4540] | 10
27 | ATTTAAAAAAAAAAAAATAAATAACTTGAAAAACAA [GTGCAC_negctrl_site318] | 9.09
28 | AAGGATAATAGGTACACATGCAATATTCATATATAC [TGCATGCA_site523] | 9.61
29 | TAAATATAATAAAAGTGTACTTACACTTACATATAA [XGTACX_site1206] | 9.12
30 | TTTCACACTATTTCATGTACACATAAAATTATATAT [XGTACX_site8692] | 9.32
31 | AACAGATAAAAGGGTACACACATATATACATGTACA [CACACA_site225] | 9.75
32 | TTGTATATATTTCCTTGTACGTAATAATTCTTATTG [XGTACX_site3938] | 9.39
33 | ATATAATAAGGTTAAGCACACATATTACATATATAA [CACACA_site9110] | 9.4
34 | TTTTATTCCGTTTCAAAATAAGAAAAAAAAAAAAAT [CACACA_negctrl_site1199] | 8.98
35 | TACTTCTCATTTGTTGTTGTATTTTAGGCATACCCT [XGTACX_negctrl_site385] | 9.51
36 | TATTTTAAAACAAAAATATAATTTCATAAAAATATA [CACACA_negctrl_site394] | 8.77
37 | TAATATATATATTTATGTACATATAAATTTTCTCCT [XGTACX_site4496] | 9.19
38 | ATAAAATAATCTTATGCACACCAAAAATTTATATAA [CACACA_site8332] | 9.28
39 | ATATATCAAAAATGATGACATAAATATATTAATTTA [TGCATGCA_negctrl_site259] | 9.1
40 | TTTTTGTAAAATAAACGTACAAAACAATTGTTCATT [XGTACX_site6537] | 9.12
41 | TATCTGTATGTATGTACACACAAAAAATGGAATATA [CACACA_site5947] | 9.51
42 | TTATATACATAAAAATGTACTTTTTATAAAATATAT [XGTACX_site8281] | 8.94
43 | AAGTTAGTATTCTGCTGTACTTCTATATATAAGTGT [XGTACX_site7678] | 9.24
44 | ACAACATTTCTCAAATGTACATAATATAATTTATAT [XGTACX_site3224] | 9.16
